# Measured values as given in PubChem BioAssay (NCATS).
# The shares of active, inactive and inconclusive entries below differ from those in the screen. For some assays here: No potency is given beside an inconclusive call; the fits are too rough. For some assays here: A note “side channel” means that the fit belongs to a control or component signal, not to the main read-out. Calls of active or inactive are those of the source. Unless noted, the call rests on the fitted dose curve; in most records, active means well fitted curve in the direction sought with a large enough effect; inconclusive means small, poorly fitted or top-dose-only effect, or another doubt; inactive means no such curve, though single readings can be large; an effect the other way counts as inactive or inconclusive.
# Key:
# [1] = target: Peroxisome proliferator-activated receptor delta (Homo sapiens) (UniProt Q03181); experiment: qHTS assay for small molecule agonists of peroxisome proliferator-activated receptor delta signaling (AID 588534; calls by dose curve; further: potency means the concentration at half of the fitted maximal effect); settings: HEK293T PPARdelta-UAS-bla, beta-lactamase ratio, 18 h; activation: at 76.7 µM (top of the series)
# Chain of UniProt Q03181 (Q03181 whole entry, looked up): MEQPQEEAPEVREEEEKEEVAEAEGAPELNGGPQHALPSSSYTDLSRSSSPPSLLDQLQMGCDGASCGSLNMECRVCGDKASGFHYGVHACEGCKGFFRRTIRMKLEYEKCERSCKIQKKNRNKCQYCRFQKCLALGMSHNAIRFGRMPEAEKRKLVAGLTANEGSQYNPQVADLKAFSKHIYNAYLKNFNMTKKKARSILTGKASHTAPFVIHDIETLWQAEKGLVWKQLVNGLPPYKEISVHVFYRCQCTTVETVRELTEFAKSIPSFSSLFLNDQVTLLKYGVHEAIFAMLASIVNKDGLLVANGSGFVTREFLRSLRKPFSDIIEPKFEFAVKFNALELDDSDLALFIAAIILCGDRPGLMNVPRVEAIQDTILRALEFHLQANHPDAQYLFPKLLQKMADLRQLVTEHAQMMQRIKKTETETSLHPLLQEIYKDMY
# In short: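 Cells carrying a PPAR-delta beta-lactamase reporter were treated with compounds for 18 h at 37 °C in agonist mode. CCF4 fluorescence was read after 2 h; EC50 and efficacy from Hill fits.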
# [2] = target: Peroxisome proliferator-activated receptor delta (Homo sapiens) (UniProt Q03181); experiment: qHTS assay for small molecule antagonists of peroxisome proliferator-activated receptor delta signaling (AID 588535; active means well fitted inhibition curve with a large enough effect in the signal ratio, with a control signal flat, not every such curve was filed as active; inconclusive means small, poorly fitted or top-dose-only effect, or effect the other way, or a change in a side signal; inactive means no such curve, though single readings can be large or run the other way; the % refers to the signal ratio; further: potency means the concentration at half of the fitted maximal effect); settings: HEK293T PPARd-UAS-bla, beta-lactamase FRET ratio, 18 h; activity change, negative = inhibition: at 76.7 µM (top of the series)
# In short: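 Antagonist-mode beta-lactamase reporter (GeneBLAzer PPAR-delta-UAS-bla) in HEK293T cells, 2% charcoal/dextran FBS, 4000 cells/well. Compound titrations, 18 h at 37 C; CCF4 ratio read, IC50 and efficacy from Hill fits.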
# [3] = target: Peroxisome proliferator-activated receptor gamma (Homo sapiens) (UniProt P37231); experiment: qHTS assay for small molecule agonists of peroxisome proliferator-activated receptor gamma signaling (AID 588536; active means well fitted curve in the direction sought with a large enough effect in the signal ratio, with a control signal flat, not every such curve was filed as active; inconclusive means small, poorly fitted or top-dose-only effect, or effect the other way, or a change in a side signal; inactive means no such curve, though single readings can be large or run the other way; the % refers to the signal ratio; further: potency means the concentration at half of the fitted maximal effect); settings: HEK293 PPARg-UAS-bla, beta-lactamase ratio, 16 h; activation: at 76.7 µM (top of the series), percent of rosiglitazone response, DMSO as zero
# In short: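 PPAR-gamma-UAS-bla HEK293 cells in medium with 1% charcoal/dextran-treated FBS were exposed to compounds for 16 h at 37 C. Beta-lactamase activity was read with CCF4 substrate (405 nm excitation, 460/530 nm emission).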
# [4] = target: Peroxisome proliferator-activated receptor gamma (Homo sapiens) (UniProt P37231); experiment: qHTS assay for small molecule antagonists of peroxisome proliferator-activated receptor gamma signaling (AID 588537; active means well fitted inhibition curve with a large enough effect in the signal ratio, with a control signal flat, not every such curve was filed as active; inconclusive means small, poorly fitted or top-dose-only effect, or effect the other way, or a change in a side signal; the % refers to the signal ratio;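 further: reporter cells co-stimulated with 50 nM rosiglitazone agonist during compound treatment; potency means the concentration at half of the fitted maximal effect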); settings: HEK293 PPARg-UAS-bla, beta-lactamase ratio, antagonist mode; activity, negative = inhibition: at 76.8 µM (top of the series)
# In short: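 PPARγ-UAS-bla HEK293 cells (3000/well) in 1% charcoal/dextran-stripped FBS are treated with compound, then stimulated with 50 nM rosiglitazone for 16 h at 37 °C. Read-out is CCF4 β-lactamase fluorescence after 2 h at RT. IC50 comes from Hill fits normalised to rosiglitazone and DMSO.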
# [5] = target: Vitamin D3 receptor (Homo sapiens) (UniProt P11473); experiment: qHTS assay for small molecule antagonists of vitamin D receptor signaling (AID 588541; calls by dose curve; further: potency means the concentration at half of the fitted maximal effect); settings: HEK293T VDR-UAS-bla, beta-lactamase ratio, antagonist mode; activity change, negative = inhibition: at 76.7 µM (top of the series) unless noted
# [6] = target: Vitamin D3 receptor (Homo sapiens) (UniProt P11473); experiment: qHTS assay for small molecule agonists of vitamin D receptor signaling (AID 588543; calls by dose curve; further: potency means the concentration at half of the fitted maximal effect;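 on activation: 0% = DMSO basal and 100% = reference agonist control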); settings: HEK293T VDR-UAS-bla, beta-lactamase ratio, 16 h; activation: at 76.8 µM (top of the series)
# In short: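 GeneBLAzer VDR-UAS-bla HEK293T cells in 2% charcoal-stripped FBS medium were dosed with compound titrations for 16 h at 37 °C; CCF4 β-lactamase readout (405 nm ex, 460/530 nm em). EC50 and efficacy from Hill fits, normalized to 50 nM calcitriol (100%) and DMSO (0%).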
# [7] = target: Retinoic acid receptor RXR-alpha (Homo sapiens) (UniProt P19793); experiment: qHTS assay for small molecule antagonists of retinoid X receptor alpha signaling (AID 588546; active means well fitted inhibition curve with a large enough effect in the signal ratio, with a control signal flat, not every such curve was filed as active; inconclusive means small, poorly fitted or top-dose-only effect, or effect the other way, or a change in a side signal; inactive means no such curve, though single readings can be large or run the other way; the % refers to the signal ratio; further: potency means the concentration at half of the fitted maximal effect); settings: HEK293T RXRa-UAS-bla, beta-lactamase ratio, antagonist mode
# Chain of UniProt P19793 (P19793 whole entry, looked up): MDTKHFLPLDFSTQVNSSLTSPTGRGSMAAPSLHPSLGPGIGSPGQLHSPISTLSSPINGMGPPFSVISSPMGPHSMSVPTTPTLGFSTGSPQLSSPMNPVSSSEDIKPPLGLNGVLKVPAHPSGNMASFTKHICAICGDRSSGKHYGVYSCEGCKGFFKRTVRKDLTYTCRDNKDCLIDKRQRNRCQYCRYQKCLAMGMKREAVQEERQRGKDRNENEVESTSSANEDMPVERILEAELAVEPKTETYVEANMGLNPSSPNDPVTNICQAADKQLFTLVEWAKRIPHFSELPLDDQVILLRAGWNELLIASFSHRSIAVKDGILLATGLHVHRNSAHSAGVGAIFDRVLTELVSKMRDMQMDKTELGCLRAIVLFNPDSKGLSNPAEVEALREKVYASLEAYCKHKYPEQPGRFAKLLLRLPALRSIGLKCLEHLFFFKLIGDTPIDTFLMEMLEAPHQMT
# In short: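 Beta-lactamase reporter inhibition, read as CCF4 fluorescence ratio (ex 405, em 460/530 nm) after 2 h at RT. HEK293T UAS-bla cells, 2500/well, were stimulated with 9-cis-RA at 500 or 100 nM final alongside test compound for 18 h at 37 C.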
# [8] = qHTS assay for small molecule agonists of the antioxidant response element (ARE) signaling pathway (AID 651741; active means well fitted activation curve with a large enough effect in the signal ratio; inconclusive means small, poorly fitted or top-dose-only effect, or effect the other way, or a change in a side signal; the % refers to the signal ratio; further: potency means the concentration at half of the fitted maximal effect; on activation: % of control where 0% means no effect); settings: HepG2 ARE-bla reporter, beta-lactamase FRET ratio, 16 h; activation: at 96 µM (top of the series)
# In short: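 CellSensor ARE-bla HepG2 cells (2,000/well) carrying ARE-driven beta-lactamase, exposed 16 h at 37 C. LiveBLAzer B/G FRET substrate added for 2 h at room temperature; fluorescence intensity read.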
# [9] = qHTS profiling for inhibitors of Plasmodium falciparum proliferation (AID 504749); further: potency means the concentration at half of the fitted maximal effect; nearly all actives have a fitted effect of over 60% in size; settings: P. falciparum in erythrocytes, SYBR Green DNA, 72 h; Potency: parasite line B unless noted; series mostly up to 28.7 µM
# In short: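 P. falciparum-infected erythrocytes (0.3% parasitemia, 2.5% hematocrit) incubated with compound 72 h at 37 C, 5% CO2. Parasite DNA detected by SYBR Green after lysis, overnight at room temperature; normalised to 0.29 uM artemisinin and DMSO.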
# [10] = Primary fluorescence-based thiol-reactive (MSTI) qHTS assay for identification of artifact compounds. (AID 1845221);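 further: potency means the concentration at half of the fitted maximal effect; thiol-reactive compounds lower the probe fluorescence signal; nearly all actives have a fitted effect of over 65% in size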
# In short: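 qHTS titration of compound; 4 uM MSTI, PBS pH 7.4, 2% DMSO; 1 h RT, dark; fluorescence 525/598 nm; normalized to Acetyl-MSTI and MSTI; 4-parameter Hill fit.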
# [11] = qHTS assay to identify small molecules that stimulate interleukin-8 (IL-8) secretion (AID 651758; active means well fitted activation curve with a large enough effect in the signal ratio; inconclusive means small, poorly fitted or top-dose-only effect, or effect the other way, or a change in a side signal; the % refers to the signal ratio; further: potency means the concentration at half of the fitted maximal effect; on activation: 0% is about no effect); settings: HTRF ratio (665/615); activation: at 92.2 µM (top of the series)
# In short: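 THP-1 cells (2000/well) exposed to compound 16 h at 37 C; secreted IL-8 then detected by HTRF with cryptate- and XL665-labelled anti-IL-8 antibody pair after 1-3 h at room temperature.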
# [12] = target: Glucocorticoid receptor (Homo sapiens) (UniProt P04150); experiment: GR-GFP Redistribution (AID 450;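 active means compounds whose dose series gives a full or clear partial fitted curve of increased nuclear translocation; inconclusive means weak partial curve or effect only at the top dose; inactive means no dose-dependent translocation response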; further: potency means the concentration at half of the fitted maximal effect); settings: U2OS GR-GFP nuclear translocation, laser cytometry, 2 h
# Chain of UniProt P04150 (P04150 whole entry, looked up): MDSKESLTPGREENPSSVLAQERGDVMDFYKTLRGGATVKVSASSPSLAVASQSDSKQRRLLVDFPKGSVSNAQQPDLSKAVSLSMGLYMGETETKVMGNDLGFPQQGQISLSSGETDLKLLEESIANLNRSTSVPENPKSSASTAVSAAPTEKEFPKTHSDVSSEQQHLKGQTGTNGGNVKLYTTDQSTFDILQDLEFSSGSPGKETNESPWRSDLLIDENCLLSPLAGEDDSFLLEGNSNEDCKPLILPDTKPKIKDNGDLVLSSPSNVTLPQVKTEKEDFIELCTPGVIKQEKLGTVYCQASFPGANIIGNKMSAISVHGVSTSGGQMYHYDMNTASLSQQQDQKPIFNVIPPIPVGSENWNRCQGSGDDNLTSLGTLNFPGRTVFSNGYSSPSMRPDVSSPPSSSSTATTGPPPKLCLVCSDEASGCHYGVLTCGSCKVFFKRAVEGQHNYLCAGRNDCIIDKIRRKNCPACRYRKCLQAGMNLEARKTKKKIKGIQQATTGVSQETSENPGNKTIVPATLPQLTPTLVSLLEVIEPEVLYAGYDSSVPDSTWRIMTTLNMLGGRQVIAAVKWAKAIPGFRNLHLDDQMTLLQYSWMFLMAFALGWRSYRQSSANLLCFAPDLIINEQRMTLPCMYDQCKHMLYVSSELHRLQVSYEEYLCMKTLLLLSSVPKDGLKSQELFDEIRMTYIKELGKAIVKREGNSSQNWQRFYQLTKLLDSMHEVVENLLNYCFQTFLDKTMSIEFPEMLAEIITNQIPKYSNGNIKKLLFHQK
# [13] = target: Androgen receptor (Homo sapiens) (UniProt P10275); experiment: qHTS assay for small molecule antagonists of androgen receptor signaling (AID 588516; active means well fitted curve in the direction sought with a large enough effect in the signal ratio, with a control signal flat, not every such curve was filed as active; inconclusive means small, poorly fitted or top-dose-only effect, or effect the other way, or a change in a side signal; inactive means no such curve, though single readings can be large or run the other way; the % refers to the signal ratio; further: potency means the concentration at half of the fitted maximal effect; on activity change, negative = inhibition: on the % scale 0 is the no-effect control and ±100 the full control effect); settings: AR-UAS-bla HEK293, beta-lactamase ratio, antagonist mode, 16 h; activity change, negative = inhibition: at 76.8 µM (top of the series)
# Chain of UniProt P10275 (P10275 whole entry, looked up): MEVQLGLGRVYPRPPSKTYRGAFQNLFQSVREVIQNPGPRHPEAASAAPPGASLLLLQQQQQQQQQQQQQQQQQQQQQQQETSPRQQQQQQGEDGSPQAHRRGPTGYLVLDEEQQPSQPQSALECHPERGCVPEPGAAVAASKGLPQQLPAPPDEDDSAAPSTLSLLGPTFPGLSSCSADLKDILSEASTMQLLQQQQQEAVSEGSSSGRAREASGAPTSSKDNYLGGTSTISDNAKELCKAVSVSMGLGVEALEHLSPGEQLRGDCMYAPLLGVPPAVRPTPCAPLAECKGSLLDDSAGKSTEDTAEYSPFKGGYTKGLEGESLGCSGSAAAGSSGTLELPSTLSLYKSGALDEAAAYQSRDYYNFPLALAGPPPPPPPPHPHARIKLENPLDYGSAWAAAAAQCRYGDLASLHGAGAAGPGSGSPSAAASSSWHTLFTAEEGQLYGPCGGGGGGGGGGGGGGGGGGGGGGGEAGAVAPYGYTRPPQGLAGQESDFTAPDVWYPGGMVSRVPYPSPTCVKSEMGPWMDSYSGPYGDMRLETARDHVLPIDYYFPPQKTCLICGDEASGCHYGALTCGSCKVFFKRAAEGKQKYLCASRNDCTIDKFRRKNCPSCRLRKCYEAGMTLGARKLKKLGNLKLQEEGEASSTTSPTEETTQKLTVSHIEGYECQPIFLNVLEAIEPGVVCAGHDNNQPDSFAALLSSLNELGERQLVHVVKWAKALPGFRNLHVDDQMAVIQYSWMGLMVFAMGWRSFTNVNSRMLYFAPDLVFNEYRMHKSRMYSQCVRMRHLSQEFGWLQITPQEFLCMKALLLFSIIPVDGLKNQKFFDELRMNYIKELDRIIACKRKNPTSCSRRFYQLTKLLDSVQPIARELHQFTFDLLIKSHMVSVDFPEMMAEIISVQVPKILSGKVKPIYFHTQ
# In short: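 Antagonist mode: inhibition of R1881-stimulated (10 nM final) bla reporter in GeneBLAzer AR HEK 293 cells, 16 h at 37C, compounds titrated. IC50 and efficacy from Hill-equation fits of 405/460–530 nm FRET ratios.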
# [14] = system: Zika virus NS2B-NS3 protease; experiment: Primary screen GU AMC qHTS for Zika virus inhibitors (AID 1347154); further: potency means the concentration at half of the fitted maximal effect; nearly all actives have a fitted effect of over 70% in size
# In short: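 Unlinked Zika NS2B hydrophilic domain–NS3 protease complex at 25 nM in 10 mM Tris-HCl pH 8.0, 0.01% Tween 20, with an AMC peptide substrate. Fluorescence change (340/450 nm) over 15 min at room temperature, normalized to controls, fitted to 4-parameter Hill.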
# [15] = Vero cells viability qHTS for Zika virus inhibitors (AID 1347167); further: potency means the concentration at half of the fitted maximal effect
# In short: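 Cells seeded at 2.5 x 10^5 cells/mL in DMEM with 4% FBS and attached overnight at 37 degrees C, then exposed to compound for 24 to 48 hours. Viability read as ATP content by CellTiter Glo luminescence.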
# [16] = Tertiary RLuc qRT-PCR qHTS assay for Zika virus inhibitors (AID 1347169); further: potency means the concentration at half of the fitted maximal effect; nearly all actives have a fitted effect of over 55% in size
# In short: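 Vero cells (1,000 per well) plated overnight at 37 degrees C, treated with compound in DMSO, then infected with recombinant ZIKV-RLuc (Cambodian) at MOI 1-2 for 48-72 hrs. Live-cell Renilla luciferase substrate added; luminescence read after 1-1.5 hrs.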
# [17] = target: Ubiquitin carboxyl-terminal hydrolase 2 (Homo sapiens) (UniProt O75604); experiment: qHTS Validation Assay for Inhibitors of Ubiquitin-specific Protease USP2a Using CHOP2 as the Reporter (AID 463106);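 further: plate controls were DMSO for no effect and full inhibition by NEM for full effect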
# Chain of UniProt O75604 (O75604 whole entry, looked up): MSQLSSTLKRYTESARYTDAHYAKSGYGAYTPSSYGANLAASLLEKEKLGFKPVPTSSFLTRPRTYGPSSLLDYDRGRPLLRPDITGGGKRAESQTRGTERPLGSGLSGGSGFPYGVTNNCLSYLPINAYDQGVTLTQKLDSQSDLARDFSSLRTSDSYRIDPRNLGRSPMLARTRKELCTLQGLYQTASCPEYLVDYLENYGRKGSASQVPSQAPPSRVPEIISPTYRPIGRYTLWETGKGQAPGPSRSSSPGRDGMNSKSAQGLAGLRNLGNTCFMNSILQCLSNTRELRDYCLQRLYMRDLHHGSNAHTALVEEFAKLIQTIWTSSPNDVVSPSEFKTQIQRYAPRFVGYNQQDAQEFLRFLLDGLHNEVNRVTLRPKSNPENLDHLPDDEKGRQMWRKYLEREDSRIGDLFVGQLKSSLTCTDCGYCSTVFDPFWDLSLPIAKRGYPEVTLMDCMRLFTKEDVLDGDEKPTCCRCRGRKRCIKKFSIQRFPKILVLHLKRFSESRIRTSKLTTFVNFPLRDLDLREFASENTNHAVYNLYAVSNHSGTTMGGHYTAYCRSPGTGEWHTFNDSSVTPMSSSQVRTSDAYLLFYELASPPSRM
# In short: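 USP2 core (10 nM final) was preincubated with compound 30 min at RT in pH 8.0 Tris/CaCl2/beta-ME/CHAPS buffer. Ub-CHOP2 and reporter substrate (25 nM final each) were then added, with fluorescence (Ex 485/Em 531) read after 60 min. Data were normalized to NEM full inhibition and fitted to concentration-response curves.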
# [18] = target: D(1A) dopamine receptor (Homo sapiens) (UniProt P21728); experiment: HTS Assay for Allosteric Agonists of the Human D1 Dopamine Receptor: Primary Screen for Agonists (AID 488981); further: potency means the concentration at half of the fitted maximal effect
# Chain of UniProt P21728 (P21728 whole entry, looked up): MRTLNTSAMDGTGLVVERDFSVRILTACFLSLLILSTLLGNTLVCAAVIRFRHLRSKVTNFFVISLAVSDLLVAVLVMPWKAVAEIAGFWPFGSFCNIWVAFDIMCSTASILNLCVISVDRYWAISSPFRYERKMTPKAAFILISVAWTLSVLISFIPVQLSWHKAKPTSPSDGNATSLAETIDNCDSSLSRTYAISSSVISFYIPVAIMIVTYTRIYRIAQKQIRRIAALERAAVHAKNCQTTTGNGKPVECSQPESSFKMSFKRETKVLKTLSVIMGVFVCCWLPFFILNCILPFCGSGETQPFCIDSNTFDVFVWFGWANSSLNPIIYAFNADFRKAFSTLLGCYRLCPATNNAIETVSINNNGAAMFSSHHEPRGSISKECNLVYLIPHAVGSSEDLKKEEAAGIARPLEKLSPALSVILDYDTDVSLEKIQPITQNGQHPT
# In short: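 Tetracycline-induced HEK293 Trex D1 cells with forced coupling to calcium, loaded with no-wash calcium dye; kinetic fluorescence read 180 s after compound addition for agonism, then a further 180 s after an EC20 dopamine challenge for potentiation.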
# Tags describe the fitted curve by direction and shape or compound fluorescence and quenching.
smiles,measurement,setting,value
CC(=O)S[C@@H]1CC2=CC(=O)CC[C@]2(C)[C@H]2CC[C@@]3(C)[C@@H](CC[C@@]34CCC(=O)O4)[C@H]12,Potency,[1],"inconclusive [side channel, rising, partial curve]"
same,Potency,[2],"inconclusive [side channel, rising, partial curve, poor fit]"
same,Potency,[3],"inconclusive [falling, partial curve]"
same,Potency,[4],active: 39.8 µM
same,Potency,[5],"inconclusive [side channel, rising, partial curve]"
same,Potency,[6],"inconclusive [side channel, rising, full curve, poor fit]"
same,Potency,[7],"inconclusive [side channel, rising, partial curve]"
same,Potency,[8],"inconclusive [activator, full curve, poor fit]"
S=C1SCN(Cc2ccccc2)CN1Cc1ccccc1,Potency,[9],"inconclusive [inhibitor, single point]"
NC1Nc2ccccc2C1(N)CC1NC(=O)C(Cc2ccccc2)NC(=O)C(Cc2ccccc2)NC1=O (stereo not drawn),Potency,[10],"inconclusive [inhibitor, full curve]"
CCCCC,Potency,[6],inactive
same,activation,[11],inconclusive: -18.4%
COC(=O)c1ccccc1O,Potency,[2],inactive
same,Potency,[6],"inconclusive [side channel, falling, full curve, poor fit]"
same,activation,[8],inconclusive: -1.47%
same,activation,[11],inconclusive: 13.7%
CC(=O)[C@H]1CC[C@H]2[C@@H]3C=CC4=CC(=O)CC[C@@]4(C)[C@H]3CC[C@]12C,Potency,[12],inconclusive [partial curve]
COc1ccc(/C=C/C(N)=O)cc1OC,Potency,[10],"inconclusive [inhibitor, full curve, poor fit]"
CC(=O)Nc1c(I)c(C(=O)O)c(I)c(N(C)C(C)=O)c1I,Potency,[9],"inconclusive [inhibitor, single point] [parasite line A]"
CC(C)(C)CC(C)(C)c1ccc(OCCO)cc1,"activity change, negative = inhibition",[13],inconclusive: -94.6%
same,activation,[11],inconclusive: 28.7%
C=C1C(CCl)(CCl)C2(Cl)C(Cl)C(Cl)C1(Cl)C2(Cl)Cl (stereo not drawn),Potency,[13],"inconclusive [falling, partial curve]"
same,Potency,[1],"inconclusive [fluorescent, single point]"
same,Potency,[2],"inconclusive [falling, partial curve]"
same,Potency,[3],"inconclusive [inhibitor, single point]"
same,Potency,[4],"inconclusive [side channel, rising, single point]"
same,Potency,[5],"inconclusive [falling, partial curve]"
same,Potency,[6],"inconclusive [side channel, rising, single point]"
same,Potency,[7],"inconclusive [inhibitor, single point]"
same,Potency,[11],active: 66.8 µM
COc1c(OC2OC(CO)C(O)C(O)C2O)ccc(O)c1C(=O)OCc1ccccc1O[C@@H]1O[C@H](CO)[C@@H](O)[C@H](O)[C@H]1O (stereo partly drawn),Potency,[10],"inconclusive [inhibitor, partial curve]"
OCC1=C[C@@H](O)[C@@H]2C=CO[C@@H](O[C@@H]3O[C@H](CO)[C@@H](O)[C@H](O)[C@H]3O)[C@H]12,Potency,[10],"inconclusive [inhibitor, partial curve]"
CCCCCCCC/C=C\CCCCCCCC(=O)NCCc1ccc(O)c(O)c1,Potency,[14],active: 16.8 µM
same,Potency,[15],active: 8.27 µM
same,Potency,[16],"inconclusive [inhibitor, full curve]"
CC(C)(C)[C@]1(O)CCN2C[C@H]3c4ccccc4CCc4cccc(c43)[C@@H]2C1,Potency,[17],inactive
CC(C)(C)c1cc(/C=C(\C#N)C(N)=S)cc(C(C)(C)C)c1O,Potency,[18],"inconclusive [activator, partial curve]"
same,Potency,[14],"inconclusive [inhibitor, single point]"
